# Laboratory results from the supplement of paper PMC12217912.
# The other results are listed elsewhere or left out. Sequences were assembled here from the parent chain. Inactive controls read about 0.05.
# B1: TEV protease; numbered along this chain (parent)
# chain: MGESLFKGPRDYNPISSSICHLTNESDGHTTSLYGIGFGPFIITNKHLFRRNNGTLVVQSLHGVFKVKDTTTLQQHLVDGRDMIIIRMPKDFPPFPQKLKFREPQREERICLVTTNFQTKSMSSMVSDTSCTFPSGDGIFWKHWIQTKDGQCGSPLVSTRDGFIVGIHSASNFTNTNNYFTSVPKNFMELLTNQEAQQWVSGWRLNADSVLWGGHKVFMVKPEEPFQPVKEATQL
# Variants of: B1
# Assay: raw area under fraction-flipped curve 0-4 h after induction (AUC4h, not background-subtracted), DNA-recorder readout of cleavage of the substrate (dimensionless); higher = more cleavage of the substrate by the protease variant
# Settings: temperature: 34 °C; time window: 0-4 h after rhamnose induction
# 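Also: Bxb1 expression induced with 0.2% (w/v) L-rhamnose at OD600 near 0.5, cultures sampled hourly, flipped fraction per protease–substrate barcode pair counted by paired-end Illumina sequencing.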
Variant,area with substrate ENLYFES,area with substrate ENLYFIS,area with substrate ENLYFFS,area with substrate ENLYFLS,area with substrate ENLYFNS,area with substrate ENLYFPS,area with substrate ENLYFRS,area with substrate ENLYFTS,area with substrate ENLYFVS,area with substrate ENLYFWS
F140W,0.0591,0.0568,,,,,,,,
Q59K,,0.0527,0.0486,0.0472,0.0655,0.0696,0.055,0.0705,0.0412,0.0572
T174K,0.102,0.0593,,,,,,0.058,0.0285,
T174S,0.0637,0.0563,,,,0.0524,,,,
N178A,0.0652,,,0.0671,,,,,,
T233E,,0.0625,0.069,0.0605,0.0421,0.0631,,0.056,0.0595,
E107L,0.101,,,,,,,0.0575,,
D79T,,0.0534,,0.0457,,0.0121,,0.052,,
R106E,0.0636,0.0764,0.0729,,,0.0626,0.0574,0.0688,0.0541,
L235E,,0.0713,,0.059,0.0594,0.0675,,,,
P222A,0.0618,0.0656,0.065,0.0534,0.0672,0.071,,0.0532,,
F101V,,0.0637,0.0403,,,0.0499,0.0529,,,
R204G,0.0659,0.0525,0.0671,0.0501,0.0651,0.0606,0.074,0.0462,0.062,0.0675
V229K,0.0472,0.0488,0.0802,,0.0467,0.0618,,0.0689,0.055,0.0953
L99Y,0.0599,0.0494,0.0703,,0.0675,,0.0473,0.0508,,0.0559
A170T,,0.0564,,,,,,0.0588,,
T114R,0.0691,0.053,0.0574,,0.0572,0.0582,0.0712,0.0581,0.0571,
S209D,,0.0615,0.0733,,,0.0602,,0.0464,0.0286,

# Same assay, conditions: temperature: 34 °C; time window: 0-4 h after rhamnose induction
Variant,area with substrate ENLYFKS,area with substrate ENLYFMS,area with substrate ENLYFYS,area with substrate ENLYFSS,area with substrate ENLYFHS,area with substrate ENLYFGS
T174K,0.0615,0.07,0.051,,,
T174S,,0.05,0.0466,,,
N178A,,0.0696,0.0471,0.067,,
T233E,0.0626,0.0612,,0.0529,,
E107L,,,,0.0592,,
D79T,0.0568,,0.0438,0.0707,0.0667,
R106E,0.065,0.0777,0.0638,,0.0433,
L235E,,0.0709,,,,
P222A,0.0587,,,0.0679,0.0828,
F101V,,,,0.0462,,
R204G,,,,0.0566,,
V229K,,0.0667,,,0.0538,
L99Y,,0.0671,0.0548,0.0598,0.0641,
A170T,,,,,0.0417,
T114R,0.0791,,0.0601,0.0635,0.0634,0.0657
S209D,,0.0608,,,,0.0597
